We go through one protein from article PMC9499477, “The Inflammasome Activity of NLRP3 Is Independent of NEK7 in HEK293 Cells Co-Expressing ASC” (International Journal of Molecular Sciences, 2022).

This data set concerns the molecule itself. The data set is described as follows: SEC + other: dynamic light scattering; analytical SEC: 100 µL of 1 mg/mL FLAG-tagged NLRP3ΔPYD on Superose 6 Increase 10/300, 20 mM HEPES pH 7.5, 200 mM NaCl, 1 mM MgCl2, 2 mM DTT, size by calibration standards; DLS at 10 °C in the same buffer; self-association.

B1: human NLRP3 lacking the PYD (NLRP3ΔPYD, […]), FLAG-tagged (domain or fragment)
chain: not shown
notes: NLRP3, human, N-terminally truncated, […] (lacks the pyrin domain); also called wild-type NLRP3ΔPYD; PYD-deleted NLRP3
Consider B1, for which the binding result is on record as “binds”.
